Data reported in PubChem BioAssay AID894 (National Center for Advancing Translational Sciences (NCATS), 2007).
Values joined by “and” are separate entries in the source; they are usually repeats but may differ in a detail not shown here. Equal entries are not always repeated. About 6,500 (4.3%) of roughly 150,000 compounds were called active. The inconclusive results got no clear call from the source; some entries with a clear call stand among them for comparison. Calls follow the shape of the dose curve; as a rule, active = well fitted inhibition curve with a large enough effect (not every such curve was filed as active); inconclusive = small, poorly fitted or top-dose-only effect, or another doubt; inactive = no such curve, though single readings can be large or run the other way. Potencies of inconclusive entries are doubtful fits and often do not repeat.

Target: 15-hydroxyprostaglandin dehydrogenase [NAD(+)] (Homo sapiens) (UniProt P15428)
Chain of UniProt P15428 (P15428 whole entry, looked up): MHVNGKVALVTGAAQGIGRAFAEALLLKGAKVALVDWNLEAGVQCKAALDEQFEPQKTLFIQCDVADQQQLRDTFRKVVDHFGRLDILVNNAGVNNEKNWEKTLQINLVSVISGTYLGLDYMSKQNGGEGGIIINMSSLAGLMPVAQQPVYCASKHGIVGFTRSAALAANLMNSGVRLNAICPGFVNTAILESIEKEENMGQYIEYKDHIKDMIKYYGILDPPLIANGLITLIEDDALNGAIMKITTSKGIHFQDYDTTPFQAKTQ
Assay: qHTS Assay for Inhibitors of HPGD (15-Hydroxyprostaglandin Dehydrogenase)
Settings: purified HPGD, NADH fluorescence kinetic, PGE2 substrate; activity change, negative = inhibition: hits give low values
Procedure, shortened: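 20 nM HPGD preincubated 15 min at room temperature with compound in 50 mM Tris-HCl pH 8, 0.01% Tween 20. Started with 1 mM NAD+ and 30 uM prostaglandin E2; NADH fluorescence (360/450 nm) read 5 times over 30-s intervals, last minus first.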
% is scaled to controls: 0 for no effect and ±100 for the full control effect; potency is read from the fitted curve at half-maximal effect; tags tell the direction and shape of the fitted curve.

Row | SMILES | Potency | activity change, negative = inhibition
1 | CC(=O)OC1c2c(ccc3ccc(=O)oc23)OC(C)(C)C1OC(=O)CC(C)C (centres undefined) | inconclusive: 28.2 µM [inhibitor, partial curve] and inconclusive: 31.6 µM [inhibitor, single point] | –
2 | c1ccc2c(c1)C(=NCC1CCCO1)NC2=NCC1CCCO1 (centres undefined) | inconclusive: 20 µM [inhibitor, partial curve] | –
3 | O=C(C1CCN(S(=O)(=O)c2cccc3cccnc23)CC1)N1CCc2ccccc21 | – | inactive: -7.03%
4 | O=c1c2c3c(sc2nc2n1CCCCC2)CCCC3 | inconclusive: 35.5 µM [inhibitor, single point] | –
5 | COc1ccccc1Cn1c(/C=C/c2ccccc2)nc2ccccc21 | inconclusive: 28.2 µM [inhibitor, partial curve] | –
6 | COC(=O)N1CCC[C@@]2(CCN(C(=O)Nc3cccc(F)c3)C2)C1 | – | inactive: 0.0176%
7 | O=C(NCC1CCCO1)c1ccc2ccccc2n1 (centres undefined) | – | inactive: -27.3%
8 | Cc1ccc(-n2nc(C(=O)NCc3ccco3)c3c4ccccc4n(C)c3c2=O)cc1 | inconclusive: 11.2 µM [inhibitor, partial curve] | –
9 | Cc1cc(-c2ccc(/C=N/n3cnnc3)o2)c([N+](=O)[O-])cc1C | active: 10 µM | –
10 | CC(C)n1c(SCCCc2ccccc2)nc2c1c(=O)[nH]c(=O)n2C | active: 20 µM | –
11 | O=C(CSCc1cccc(Cl)c1)NCc1ccc2c(c1)OCO2 | active: 12.6 µM | –
12 | CCC(=O)Nc1c(C(=O)N2CCCCCC2)cnn1-c1ccc(C)c(C)c1 | inconclusive: 22.4 µM [inhibitor, partial curve] | –
13 | O=C1C2C3C=CC(C4CC34)C2C(=O)N1/N=C/c1cccs1 (centres undefined) | active: 4.47 µM | –
14 | O=C1c2cccc3cccc(c23)C(=O)N1c1nncs1 | inconclusive: 15.8 µM [inhibitor, partial curve] | –
15 | COc1ccc(CCNC(=O)COC(=O)c2cnccn2)cc1 | – | inactive: -5.67%
16 | CC1=CC(C)(C)Nc2ccccc21 | – | inactive: -11.8% and inactive: -1.96%
17 | COC(=O)c1ccc(C)c(-n2c(C)cc(C=O)c2C)c1 | – | inactive: -21.1%
18 | Cc1nc2ccccn2c1C(=O)NC1CCCCC1 | inconclusive: 25.1 µM [inhibitor, partial curve] | –
19 | CC(=O)N(c1ccc2oc(=O)sc2c1)S(=O)(=O)c1ccccc1 | – | inactive: -28%
20 | COc1ccc(/C=N/NC(=O)c2nn(-c3ccccc3)c(=O)c3c(N)scc23)cc1 | active: 28.2 µM | –
21 | COCCn1c(C23CC4CC(CC(C4)C2)C3)n[nH]c1=S | active: 25.1 µM | –
22 | COc1ccc2c(CC(=O)OCC(=O)Nc3ccccc3[N+](=O)[O-])coc2c1 | – | inactive: -21.4%
23 | O=C(CO/N=C/c1ccccc1OC(F)F)NCc1cccs1 | active: 15.8 µM | –

Row | SMILES | Potency | activity change, negative = inhibition
24 | CC(=O)N1CCC[C@@]2(CCN(Cc3nccs3)C2)C1 | – | inactive: -12.4%
25 | CCC(C)c1ccccc1NC(=O)COC(=O)c1ccc(C)c(NC(=O)c2ccco2)c1 (centres undefined) | inconclusive: 0.447 µM [inhibitor, full curve, poor fit] | –
26 | O=C(/C=C\c1cccs1)c1c(O)ccc2ccc(=O)oc12 | inconclusive: 31.6 µM [inhibitor, partial curve] | –
27 | CC(C)(C)NC(=O)CSc1nncn1NCc1c(Cl)cccc1Cl | – | inactive: -8.89%
28 | CCOC(=O)c1c(NC(=O)c2ccnn2C)sc(C)c1C | inconclusive: 25.1 µM [inhibitor, partial curve] | –
29 | N#Cc1c(C(F)(F)F)cc(C2CC2)[nH]c1=O | inconclusive: 8.91 µM [inhibitor, partial curve] | –
30 | Cc1nn(-c2ccccc2)cc1C(=S)Nc1ccccc1 | inconclusive: 39.8 µM [inhibitor, single point] | –
31 | CCCc1nc2ccccc2c(C(=O)OCC(=O)Nc2ccc(S(=O)(=O)N3CCOCC3)cc2)c1CC | – | inactive: -15.6%
32 | COc1cc2c(=O)n(Cc3ccccc3)c(=O)n(CC(=O)NCc3ccco3)c2cc1OC | inconclusive: 25.1 µM [inhibitor, partial curve] | –
33 | CN1CCc2cc3c(c4c2[C@H]1[C@H](O)c1ccccc1-4)OCO3 | inconclusive: 3.98 µM [inhibitor, single point] | –
34 | CC1=CC(c2ccccc2)n2nc(N3C(=O)C4CC=CCC4C3=O)nc2N1 (centres undefined) | inconclusive: 31.6 µM [inhibitor, partial curve] | –
35 | COc1ccc(-c2cc(-c3ccccc3)nc(N3CCCC3)n2)cc1OC | inconclusive: 31.6 µM [inhibitor, partial curve] | –
36 | Cc1ccc(/C=C(\C#N)c2nn(-c3ccccc3)c(N)c2C#N)cc1 | inconclusive: 31.6 µM [inhibitor, partial curve] | –
37 | Cc1cccc2[nH]c3c(N4CCN(C(=O)c5ccco5)CC4)ncnc3c12 | inconclusive: 25.1 µM [inhibitor, partial curve] | –
38 | N#CC1=C2SCN(Cc3ccco3)CN2C(=O)CC1c1cccc2ccccc12 (centres undefined) | inconclusive: 14.1 µM [inhibitor, partial curve] | –
39 | COc1cc(NC(=S)N2CCCC(CO)C2)c(OC)cc1Cl (centres undefined) | inconclusive: 28.2 µM [inhibitor, partial curve] | –
40 | Cc1ccc(NC(=O)Cn2c(/C=C/c3ccccc3)nc3ccccc32)cc1C | inconclusive: 28.2 µM [inhibitor, partial curve] | –
41 | Cc1ccc(-c2nn3c(C)nnc3s2)cc1NC(=O)c1ccc(-c2cccc(Cl)c2)o1 | active: 22.4 µM | –
42 | O=C(Nc1ccccc1)c1ccc(N2CCN(c3ccccn3)CC2)c(S(=O)(=O)N2CCOCC2)c1 | inconclusive: 35.5 µM [inhibitor, single point] | –
43 | Cc1ccnc(-n2sc3ccccc3c2=O)n1 | active: 0.794 µM | –
44 | O=C(c1nsc(Cl)c1Cl)N1CCCCC1 | active: 2.51 µM | –
45 | COc1cc(NC(=O)c2cc3c(=O)n(C)c4ccccc4c3n2C)cc(OC)c1OC | inconclusive: 11.2 µM [inhibitor, partial curve] | –
46 | COc1ccc(O)c(-c2cc(-c3cccs3)[nH]n2)c1 | inconclusive: 35.5 µM [inhibitor, partial curve] | –

Row | SMILES | Potency | activity change, negative = inhibition
47 | COCCNC(=O)/C=C/c1c(Cl)cccc1Cl | active: 12.6 µM | –
48 | CC1CCCCN1C(=O)c1ccc(C(=O)N2CCCCC2C)cc1 (centres undefined) | inconclusive: 28.2 µM [inhibitor, partial curve, poor fit] | –
49 | COc1ccc(Nc2nnc(SCc3cc([N+](=O)[O-])cc4c3OCOC4)s2)cc1 | active: 25.1 µM | –
50 | c1ccc2c(c1)OCC(c1nnc3sc(-c4ccc5c(c4)OCO5)nn13)O2 (centres undefined) | inconclusive: 15.8 µM [inhibitor, partial curve] | –
51 | COc1cc2c(cc1NC(=S)Nc1cccc3ccccc13)oc1ccccc12 | inconclusive: 8.91 µM [inhibitor, partial curve] | –
52 | CCC1CCc2c(sc(NC(=O)C3c4ccccc4Oc4ccccc43)c2C(N)=O)C1 (centres undefined) | inconclusive: 39.8 µM [inhibitor, single point] | –
53 | CS(=O)(=O)c1ccc2nc(NC(=O)Nc3ccc(Cl)c(Cl)c3)sc2c1 | inconclusive: 25.1 µM [inhibitor, partial curve] | –
54 | O=C(Nc1ccncc1)c1cn(-c2ccccc2)nc1-c1cccs1 | inconclusive: 22.4 µM [inhibitor, partial curve] | –
55 | Cc1ccc(-c2cc(=O)c3ccccc3[nH]2)cc1 | inconclusive: 20 µM [inhibitor, partial curve] and inconclusive: 44.7 µM [inhibitor, partial curve] | –
56 | CCOc1ccccc1N1CCN(c2nc(N)c(C#N)c(CC#N)c2C#N)CC1 | – | inactive: -29.9%
57 | C=CCn1c(SCc2csc(C)n2)nc2scc(-c3ccc(C)o3)c2c1=O | inconclusive: 22.4 µM [inhibitor, partial curve] | –
58 | CC1CN(c2cc(-c3ccccc3)c3ccccc3n2)CC(C)O1 (centres undefined) | inconclusive: 31.6 µM [inhibitor, partial curve] | –
59 | O=C(Cn1nnc(-c2ccccc2)n1)N/N=C/c1ccc(-c2ccc(Cl)cc2)o1 | inconclusive: 28.2 µM [inhibitor, partial curve] | –
60 | NC(Cc1ccc(O)c(O)c1)C(=O)O (centres undefined) | inconclusive: 14.1 µM [inhibitor, partial curve] | –
61 | Cc1c(Cl)cccc1NC(=S)NCCC(c1ccccc1)c1ccccc1 | – | inactive: -18.7%
62 | COc1ccc(C(=O)Nc2ccc3oc(-c4cccc(F)c4)nc3c2)cc1OC | inconclusive: 31.6 µM [inhibitor, partial curve] | –
63 | COc1ccc(CCNC(=O)CCCCCNc2nc(=S)[nH]c3ccccc23)cc1OC | inconclusive: 22.4 µM [inhibitor, partial curve] | –
64 | O=S(=O)(NCc1csc(-c2ccccc2)n1)c1ccc(Cl)s1 | active: 17.8 µM | –
65 | O=C(CNS(=O)(=O)/C=C/c1ccccc1)OCC(=O)N1CCC(Cc2ccccc2)CC1 | – | inactive: -2.88%
66 | CSc1nc(-c2ccco2)cc(C(F)(F)F)c1C#N | inconclusive: 31.6 µM [inhibitor, single point] | –
67 | Cn1c(=O)cc(SCC(=O)N2CCCC2)c2ccc(Cl)cc21 | active: 14.1 µM | –
68 | CN1C(=O)C2(C(C#N)=C(N)N(c3cc(Cl)cc(Cl)c3)C3=C2C(=O)CCC3)c2ccccc21 (centres undefined) | – | inactive: 0.0597%
69 | c1ccc2oc(-c3ccc(Nc4nc(N5CCCCC5)nc(N5CCOCC5)n4)cc3)nc2c1 | inconclusive: 31.6 µM [inhibitor, partial curve] | –
